Publication PMC4336329 (PLoS ONE, 2015)
Screen size: about 310,000 compounds; about 14,000 (4.5%) showed an effect of 50% or more. Effects have a minus sign here. The list shows a part of the results.

These molecules were tested against human ether-à-go-go-related gene (hERG) potassium channel (human, UniProt Q12809) (assay: primary screen, population patch clamp on CHO cells stably expressing hERG).
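Also: peak tail current of the secondary pulse compared with the same well before compound.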

Sequence of human ether-à-go-go-related gene (hERG) potassium channel (Q12809 whole entry, looked up): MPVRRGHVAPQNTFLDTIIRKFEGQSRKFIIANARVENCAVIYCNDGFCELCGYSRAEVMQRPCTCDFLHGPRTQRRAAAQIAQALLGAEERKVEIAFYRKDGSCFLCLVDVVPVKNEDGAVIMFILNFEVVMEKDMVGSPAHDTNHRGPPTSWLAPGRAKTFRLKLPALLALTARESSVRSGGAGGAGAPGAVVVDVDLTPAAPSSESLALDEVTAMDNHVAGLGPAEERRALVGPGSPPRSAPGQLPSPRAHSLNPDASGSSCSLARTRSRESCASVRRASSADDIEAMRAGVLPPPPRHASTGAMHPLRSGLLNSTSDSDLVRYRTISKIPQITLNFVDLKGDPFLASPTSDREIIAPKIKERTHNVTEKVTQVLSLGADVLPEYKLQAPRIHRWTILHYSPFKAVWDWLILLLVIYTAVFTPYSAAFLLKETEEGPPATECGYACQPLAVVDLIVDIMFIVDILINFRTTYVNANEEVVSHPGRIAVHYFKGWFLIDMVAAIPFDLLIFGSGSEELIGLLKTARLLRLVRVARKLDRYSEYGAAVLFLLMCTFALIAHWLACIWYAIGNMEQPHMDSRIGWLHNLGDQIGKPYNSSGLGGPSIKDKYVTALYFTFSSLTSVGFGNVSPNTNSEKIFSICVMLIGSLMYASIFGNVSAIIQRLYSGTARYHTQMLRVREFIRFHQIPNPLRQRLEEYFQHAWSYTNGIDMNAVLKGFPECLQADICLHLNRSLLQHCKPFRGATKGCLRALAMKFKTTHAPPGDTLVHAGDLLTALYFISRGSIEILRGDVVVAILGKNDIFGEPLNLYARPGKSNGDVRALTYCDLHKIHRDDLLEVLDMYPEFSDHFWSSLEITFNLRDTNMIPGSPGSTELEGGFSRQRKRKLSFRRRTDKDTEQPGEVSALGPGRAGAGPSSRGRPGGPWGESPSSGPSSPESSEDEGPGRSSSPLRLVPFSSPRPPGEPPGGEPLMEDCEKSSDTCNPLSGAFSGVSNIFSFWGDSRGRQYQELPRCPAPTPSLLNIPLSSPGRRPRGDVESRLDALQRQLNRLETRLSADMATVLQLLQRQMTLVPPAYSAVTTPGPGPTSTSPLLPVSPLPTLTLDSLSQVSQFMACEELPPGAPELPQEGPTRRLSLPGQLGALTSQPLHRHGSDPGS

Row | SMILES | hERG current change (%, negative = inhibition) at 10uM
1 | O=C(CNC(=O)OCc1ccccc1)NCC(=O)Nc1ccc(Br)cc1C(=O)c1ccccc1 | -56%
2 | O=C(CCC(=O)N(CC(=O)NC1CCCC1)c1ccccc1F)Nc1nccs1 | -14.3%
3 | Cc1ccc(C2CC(=O)C=C(NCC(C)C)C2)cc1 (stereo not drawn) | -1.28%
4 | NS(=O)(=O)c1ccc(CCNC(=O)CNC(=O)c2ccc(Br)o2)cc1 | 2.72%
5 | CCN(CC)C(=O)CSc1nnc(COc2ccc(OC)cc2)n1N | 2.44%
6 | O=C(Nc1ccccc1)c1ccc(OC(=O)c2ccccc2)cc1 | 16.3%
7 | CC1CCN(CC(=O)Nc2ccc(S(=O)(=O)N3CCC(C)CC3)cc2)CC1.Cl | -42.8%
8 | CCCN(CC(=O)Nc1ccccc1C)C(=O)c1ccc(S(=O)(=O)N2CCCC2)cc1 | -21.9%
9 | COc1ccc(S(=O)(=O)N2CCN(Cc3c[nH]c4ccccc34)CC2)cc1 | -24.9%
10 | CCOC(=O)C/C(C)=N/NC(=O)CN(c1ccc(Br)cc1)S(=O)(=O)c1ccccc1 | -0.597%
11 | CCS(=O)(=O)n1nc(-c2ccc(OC)cc2)nc1SC | 0.538%
12 | O=C(CSc1ncn(-c2ccccc2)n1)Nc1ccc(Br)cn1 | -15.1%
13 | CCc1nc(Nc2ccc3nccnc3c2)c2oc3ccccc3c2n1.Cl | 17.5%
14 | CC(OC(=O)c1ccc(-n2cnnn2)cc1)C(=O)NCc1ccccc1 (stereo not drawn) | -49.3%
15 | COc1ccccc1NC(=O)/C=C/C(=O)O | 8.06%
16 | Cc1cccc(OCc2nnc(SCC(=O)N3CCN(C(=O)c4ccco4)CC3)n2C)c1C | -34.2%
17 | Cc1ccc(C2c3[nH]c4ccccc4c3C[C@H]3C(=O)N(c4ccccc4C(=O)N4CCC[C@H]4C(=O)O)C(=O)N23)cc1 (stereo partly drawn) | 11.4%
18 | CCOC(=O)[C@H]1[C@H]2COc3ccc(OC)cc3[C@@H]2N2C(=O)CN(Cc3ccc(C)cc3)C(=O)[C@@]12C | -19.3%
19 | O=C(O)C1C(c2ccccc2)C(C(=O)Oc2ccccc2)C1c1ccccc1 (stereo not drawn) | 5.02%
20 | O=C(C1CCC(CNS(=O)(=O)c2cccc3nsnc23)CC1)N1CCN(c2ccccn2)CC1 (stereo not drawn) | -53.9%
21 | CSc1ccccc1C(=O)C1CCCN(S(=O)(=O)N(C)C)C1 (stereo not drawn) | -20.4%
22 | C/C=C(\C)CN1CCCC(CO)(Cc2ccccc2)C1 (stereo not drawn) | 10.4%
23 | COc1cc(/C=C/C(=O)OCC(=O)NC(=O)NC(C)(C)C)cc(OC)c1OC | 13.4%

Row | SMILES | hERG current change (%, negative = inhibition) at 10uM
24 | Nc1cc(=O)[nH]c(N2CCN(c3ccccc3)CC2)n1 | 24.2%
25 | CCCCOc1ccc(NC(=O)c2cnc(C)cn2)cc1 | -6.25%
26 | O=C(NC1CCCCC1)C(c1ccccn1)N(C(=O)c1csnn1)c1ccccc1 (stereo not drawn) | 1.6%
27 | Cc1cc(C)cc(NC(=O)CSc2cc(C(=O)c3nccn3C)c3ccccc3n2)c1 | -3.45%
28 | COc1cccc(CNC(=O)CCC2CCCN(C(=O)c3ccoc3C)C2)c1 (stereo not drawn) | 5.6%
29 | N#C/C(=C/c1ccco1)c1nc2ccccc2s1 | 9.32%
30 | CC(=O)Nc1ccc(Br)c(Cl)c1 | 10.9%
31 | CCCCOc1ccc(C(=O)Nc2cccc(C)n2)cc1 | -12.2%
32 | O=C(Nc1nnc(-c2ccncc2)o1)c1ccc2ccccc2c1 | -3.08%
33 | CCCCCOC(=O)NCCOC(=O)Nc1ccc(C(=O)OCC)cc1 | 14%
34 | CS(=O)(=O)c1ccc(Cl)c(NC(=O)c2ccc3ccccc3c2)c1 | -7.15%
35 | CCC(C)Nc1nc(-c2ccccn2)nc2ccccc12 (stereo not drawn) | -50.2%
36 | Nc1nnc(CC(=O)N/N=C/c2ccc(-c3ccc(F)cc3)o2)s1 | 4.34%
37 | CCN(CC)S(=O)(=O)c1ccc(C(=O)NC2=NCCS2)cc1 | 14.7%
38 | CC(C)c1ccc(/C=C2\Oc3c(ccc(O)c3CN3CCN(C)CC3)C2=O)cc1 | -5.69%
39 | O=C(c1ccc2ccccc2c1)N1CCN(S(=O)(=O)/C=C/c2ccccc2)CC1 | -31.9%
40 | CCN(CC)c1ccc(NC(=O)c2ccc(Br)o2)c(C)c1 | -1.8%
41 | CC1=C2C(CCS2(=O)=O)CC2(C1)C(=O)OC(C)(C)OC2=O (stereo not drawn) | 4.47%
42 | Cc1ccc(S(=O)(=O)NC(Cc2ccccc2)C(=O)O)cc1 (stereo not drawn) | -8.33%
43 | O=C(NC(=S)Nc1ccc2c(c1)OCCO2)c1ccc(F)cc1Cl | 15.6%
44 | CCOCCCn1c(SC(C)C(=O)NCC2CCCO2)nc2sc(C)c(C)c2c1=O (stereo not drawn) | 0.863%
45 | C/C(NC1CCCC1)=C(/C#N)C(N)=O | 4.5%
46 | C/C(=N\Nc1nc(C(C)(C)C)cs1)c1ccccc1 | 16.4%

Row | SMILES | hERG current change (%, negative = inhibition) at 10uM
47 | COc1ccc(CCNC(=O)Cn2c(=O)oc3cc(Cl)ccc32)cc1OC | -2.54%
48 | O=C(Cn1cnc2c(cnn2-c2ccc(F)cc2)c1=O)NCC1CCCO1 (stereo not drawn) | -13.1%
49 | COc1cc(CCC(=O)OCC(=O)Nc2c(F)cccc2F)cc(OC)c1OC | 5.38%
50 | COc1ccc(N2C(=O)C3CCCN3C2c2ccccc2)cc1Cl (stereo not drawn) | 7.28%
51 | CCOc1cc(/C=N/O)ccc1OCc1ccc([N+](=O)[O-])cc1 | -13.6%
52 | CC(=O)N1CCN(CC(=O)Nc2cccc(S(=O)(=O)N3CCCCCC3)c2)CC1 | -23.3%
53 | COc1ccc(Br)cc1/C=C/C(=O)Nc1ccc(C)cc1 | 21.4%
54 | COC(=O)NC1c2ccccc2Oc2ccccc21 | 41.4%
55 | Cc1ccc(C)c(-n2c(C)nc3ccccc3c2=O)c1 | 14.3%
56 | COc1ccc(OC)c(S(=O)(=O)NCCOC23CC4CC(CC(C4)C2)C3)c1 | -18.8%
57 | Cc1c(C(=O)NCC2CCCO2)sc2nc(-c3ccccc3)cn12 (stereo not drawn) | -37.6%
58 | O=C(Cn1c(=O)cnc2ccccc21)Nc1ccccc1N1CCOCC1 | -4.54%
59 | Cc1c(OCC(=O)C(C)(C)C)ccc2c(-c3ccccc3)cc(=O)oc12 | -12.5%
60 | CNC(=O)CN1C(=O)NC2(CCc3ccccc3C2)C1=O (stereo not drawn) | 21.8%
61 | c1ccc(C2=Nn3c(nnc3-c3ccccn3)SC2)cc1 | -11.6%
62 | CCOc1cccc(CNCc2ccncc2)c1 | -3.58%
63 | COC(=O)c1ccc(NC(=O)C2C3CCC(C3)C2C(=O)O)cc1 (stereo not drawn) | -10.7%
64 | COc1ccc(C(c2sc3nc(C)nn3c2O)N2CC(C)OC(C)C2)cc1OC (stereo not drawn) | -7.01%
65 | Cc1ccc(NC(=O)COC(=O)CN2C(=O)c3ccccc3C2=O)cc1S(=O)(=O)N(C)C | -17.2%
66 | COc1cccc(CN=c2c([N+](=O)[O-])nn(-c3ccccc3C)n2O)c1 | 8.91%
67 | COc1ccccc1C(=O)Nc1ccc2[nH]ncc2c1 | 5.94%
68 | CCn1c(-c2cc(-c3ccc(C)cc3)nc3ccccc23)n[nH]c1=S | 11.4%
69 | O=C(c1ccc(CS(=O)(=O)c2c(Cl)cccc2Cl)o1)N1CCN(c2ccccn2)CC1 | -39.6%

Row | SMILES | hERG current change (%, negative = inhibition) at 10uM
70 | Cc1cc(C)n(C(=O)CNC(=O)COc2ccccc2)n1 | 11.5%
71 | O=C(NCc1cccnc1)NC(=O)c1ccc(Cl)cc1 | 3.09%
72 | Cn1/c(=N\NC(=O)c2ccccc2Cl)sc2ccccc21 | 6.82%
73 | CCOC(=O)c1oc2ccccc2c1NC(=O)Cc1cccs1 | 0.503%
74 | CCC(C)c1ccc(S(=O)(=O)N2CC(=O)Nc3ccccc32)cc1 (stereo not drawn) | -11.2%
75 | COc1ccccc1N1CCN(S(=O)(=O)c2c(C)[nH]c(=O)[nH]c2=O)CC1 | -7.32%
76 | Cc1ccc(C)c(OCCCN2CCCC2)c1.O=C(O)C(=O)O | -54.9%
77 | CC12CN(NC(=O)c3ccc(Cl)cc3)C3(C#N)CC1CCC23C (stereo not drawn) | 19%
78 | COc1ccccc1OCCCC(=O)NCc1ccco1 | 7.62%
79 | CC(C)c1nnc(NC(=O)CCC(=O)N2CCN(c3cccc(Cl)c3)CC2)s1 | -5.57%
80 | Cc1ccnc(NC(=O)c2ccc(Cl)c(NC(=O)c3ccccc3C)c2)c1 | 10.2%
81 | COC(=O)c1ccccc1NC(=O)CCCn1nc(C)c2c(C)n(-c3ccccc3)nc2c1=O | -14.7%
82 | c1ccc2c(c1)[nH]c1c(N3CCN(C4CCCCC4)CC3)ncnc12 | -42.7%
83 | COc1ccc(C)cc1NS(=O)(=O)c1ccc(Br)s1 | -5.73%
84 | CCN1CCN(C(=O)/C=C/c2ccc(C)o2)CC1 | -8.76%
85 | Cc1ccc(NC(=O)CSC(N)=O)cc1Cl | 7.5%
86 | Cc1c(C(=O)N2CCOCC2)sc(NC(=O)c2ccc([N+](=O)[O-])cc2)c1C#N | 11.4%
87 | Cc1ccc2oc(-c3ccccc3)c(C(=O)O)c(=O)c2c1 | -2.67%
88 | CC1CC2(CCCCC2)N2C(=O)C(=O)c3cccc1c32 (stereo not drawn) | -2.7%
89 | COc1ccc(CNC(=O)CCCOc2cc(=O)n(C)c3ccccc23)cc1 | -19.2%
90 | Cc1ccc(N2C(=O)C(CC(=O)Nc3cccc(F)c3)N(CCc3ccncc3)C2=O)cc1 (stereo not drawn) | -52.3%
